From paper PMC6212790
Some of the results follow. At the low end of the ranking, values are background and their order means little.

The sequences below were run against T1, GST-Rok (full length) (UniProt O34857) (assay: protein binding microarray). Settings: Rok is a gene silencer of Bacillus subtilis; high values mean tight binding; most listed sequences are background and not binding sites; double strand, one strand shown.
T1 sequence: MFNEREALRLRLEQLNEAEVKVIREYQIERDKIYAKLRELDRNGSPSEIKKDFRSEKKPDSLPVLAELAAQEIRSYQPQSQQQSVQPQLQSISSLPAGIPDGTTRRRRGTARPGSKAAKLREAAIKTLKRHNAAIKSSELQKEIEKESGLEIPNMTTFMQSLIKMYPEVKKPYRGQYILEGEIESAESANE
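Note: rank score from −0.5 (least bound) to 0.5 (best bound).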

Sequence	binding signal
AGAGAATC	-0.0562 E-score
GAAAGGGC	-0.273 E-score
AGCCCAAG	-0.222 E-score
AGTATTGA	0.229 E-score
AAACAGTA	0.253 E-score
CTTGTGTA	0.0875 E-score
GCCATAGC	-0.0306 E-score
ACTCGAAG	-0.0857 E-score
CGCGACTA	0.138 E-score
AATCGCGT	-0.0697 E-score
CTCGCGGC	-0.278 E-score
AAGATCAA	0.16 E-score
CTCAAAAG	-0.292 E-score
GACGCTGA	-0.235 E-score
ATACCTCC	-0.0703 E-score
ACATGATC	0.175 E-score
TGGCCTAA	-0.19 E-score
GGCGGCGA	-0.15 E-score
AATCTGGT	0.0319 E-score
GCTCGGTA	0.16 E-score
CTGCGATA	0.207 E-score
ACGGCTTG	-0.117 E-score
AGTTGCTG	0.0511 E-score
TAAGGTCA	0.00524 E-score
ATCCTCAA	0.0862 E-score

Sequence	binding signal
AGGATGCC	-0.199 E-score
ATCTGCAT	0.125 E-score
AAATTCAG	0.123 E-score
CTTGGTGA	-0.164 E-score
ATTGTCAC	0.0843 E-score
GCTTGGAA	-0.113 E-score
AAGTGCTC	-0.174 E-score
GGACGCAA	0.0476 E-score
CGTCTGAA	-0.0353 E-score
AATTGGAA	-0.0286 E-score
GCTACCGA	0.21 E-score
CAATCGCC	-0.27 E-score
ACCAAAGA	0.122 E-score
CTTGTCGC	-0.229 E-score
GTCATTGA	-0.0517 E-score
CGAATTAC	0.28 E-score
GCTTACTA	0.0602 E-score
CAGGATCG	-0.19 E-score
CACTTATG	0.124 E-score
GGCCATGA	-0.266 E-score
ATGGTCGA	-0.126 E-score
AGACGTTC	-0.19 E-score
AAAGACAG	-0.0985 E-score
ATCCTAAG	-0.0403 E-score
CCCATCCA	-0.188 E-score

Sequence	binding signal
AAATGGAG	-0.0622 E-score
CTTGAGTC	0.00957 E-score
ACGCCTAG	-0.0308 E-score
CATGGCCA	-0.114 E-score
CCCTTCGA	-0.254 E-score
CCTGGGGA	-0.19 E-score
CTGGAAAC	-0.105 E-score
ACCTATAA	0.27 E-score
ATGGTATA	0.381 E-score
CAGCCTAG	-0.19 E-score
CATTGCAA	0.12 E-score
CGGACCTC	-0.43 E-score
CAGATTAG	0.083 E-score
GTTCCTCA	-0.0987 E-score
CACAAGGC	-0.202 E-score
AAAATATA	0.417 E-score
CGGTTACC	-0.0483 E-score
CCTATTCC	-0.0525 E-score
CAGATCAC	-0.0317 E-score
CCTGATAA	0.026 E-score
ACAAAGCA	0.0377 E-score
CACGCGTC	-0.137 E-score
AAGTCTAA	-0.0172 E-score
CCCCTTTA	-0.328 E-score
CCACGCCC	-0.355 E-score

Sequence	binding signal
CTCTAGAC	-0.099 E-score
GGCAGCCC	-0.266 E-score
ATGGATGC	-0.00761 E-score
AAGTGGGT	0.13 E-score
ATCTGGAA	0.0658 E-score
TAGTGTAA	0.253 E-score
GCTAGTAC	0.181 E-score
TATGGTCA	-0.0127 E-score
AGGAAACT	-0.0373 E-score
GGCCCCAC	-0.333 E-score
GATCATCC	-0.211 E-score
AGAGTCCT	-0.248 E-score
AAGTAGTC	0.194 E-score
AAGTCTAG	0.128 E-score
CCTTCTTC	-0.327 E-score
AGCTCCTC	-0.0583 E-score
CCGAATTC	0.0736 E-score
AGAAAGTC	0.121 E-score
CCGATACG	-0.0891 E-score
GTTCTGCA	0.00386 E-score
CTTCCCGA	-0.182 E-score
AAATCACC	0.0196 E-score
ACGGTAAG	0.0516 E-score
ATAGTGGA	0.179 E-score
TCCGAAAA	-0.0826 E-score

Sequence	binding signal
ACAAACGG	-0.00473 E-score
CCGTGCAG	-0.0228 E-score
CACCGAGG	-0.123 E-score
GTTTTAGA	0.0208 E-score
CTTCTTCC	-0.353 E-score
TATGATGA	0.215 E-score
ATCGGAAG	-0.123 E-score
AGGGTTTA	-0.0103 E-score
CAATAGAG	0.0217 E-score
ACTTCTTA	0.202 E-score
ACAAATGC	-0.0981 E-score
ATGATTAG	0.0928 E-score
ACCCGGGA	-0.121 E-score
GAAGTTTA	0.0113 E-score
AACGCGAC	-0.106 E-score
GGTTACGA	-0.13 E-score
AATCAACA	0.125 E-score
CACGTCGG	-0.256 E-score
CCGTTACA	0.106 E-score
CTTTCTGC	-0.0384 E-score
AATTGCCG	0.164 E-score
CGAACGAC	-0.132 E-score
AGCCGTCA	-0.275 E-score
CCCCGAAG	-0.218 E-score
AATCCCGT	-0.118 E-score

Sequence	binding signal
CAATGCAG	-0.0941 E-score
TACTTTAA	0.308 E-score
GCACATAC	-0.0928 E-score
CCATGGCA	-0.142 E-score
CTATTCTC	-0.106 E-score
ACGATGCT	0.156 E-score
GGTTGACA	-0.0593 E-score
CCATACTC	-0.0138 E-score
GAGCTACA	0.0398 E-score
CAGGAGGG	-0.391 E-score
TAGGAGAA	0.118 E-score
AGCTTTCG	-0.0148 E-score
GTTTGCGA	0.0745 E-score
TGTAGTAA	0.349 E-score
CCCACCTA	-0.2 E-score
ATCACTTG	0.109 E-score
AGCCACCA	-0.0885 E-score
CCTGGAGC	-0.034 E-score
CGAATTCA	0.109 E-score
CCTAGCCC	-0.254 E-score
ACTTTTCG	0.215 E-score
ACGGATCT	0.096 E-score
AATAGTAT	0.292 E-score
CCGCGCAG	-0.266 E-score
CAGGGGAG	-0.46 E-score

Sequence	binding signal
ACGAGTGC	-0.0689 E-score
CCCCCGCA	-0.399 E-score
ACGATTAA	0.041 E-score
ACCCGGCC	-0.197 E-score
AGAGTGTA	0.011 E-score
GGTGTTAA	-0.037 E-score
AACTCTGC	0.137 E-score
GCGTGCCA	-0.295 E-score
AGGACACG	-0.0452 E-score
GTAAAGAC	0.0578 E-score
CCCTGGAA	-0.226 E-score
ATGATGCG	0.0798 E-score
CCACCATC	-0.165 E-score
ATGCCTTC	-0.125 E-score
TACGAACA	0.202 E-score
CGGGCGGA	-0.281 E-score
GCTAGACC	-0.174 E-score
TAAGACCA	-0.0966 E-score
CGAGACAG	-0.142 E-score
AAGGGAGC	-0.376 E-score
GTCCACGA	-0.228 E-score
AATGGGGG	-0.364 E-score
